# Reference: the supplement of paper PMC8728848
# The other results are listed elsewhere or left out.
# B1: Epa15 (Candida glabrata) (protein)
# chain: MGSSHHHHHHSSGLVPRGSHMASDPTTFPLGCSPEFTKTKKGLSMELYRYDYLPPGSYPCWDSAYLNPSYPRTGYKAKKLIATVDGVSGDINFKFNPKFGCKAIPDYLPSNFNYHEPITITNFTMILYGYFMPKTTAFHTFYVTADDLLFMNFGAGNAFDCCRREETADKFGNYAAYSVWGKKSLKNELTVYLHTGVYYPIRLFYNNRDYIAQLDIRFKTEHSNAIITNFTDYFYSVDDSSLGCPGLI
# Tests used:
# Assay in all cases: glycan array binding signal (z-score within array); higher = stronger binding
# Conditions in all cases: glycan notation: IUPAC condensed, linker removed
# [1] = biological target: Neu5Ac(a2-3)Gal(b1-3)GlcNAc(b1-6)GalNAc
# Procedure, shortened: (§1)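 The binding signal is a Z-score computed within each array and averaged over linkers. Arrays of the same protein sequence at different concentrations or buffers were also averaged together. Data originate from 3228 arrays in the Consortium for Functional Glycomics database, kept only where the protein sequence was available.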
# [2] = biological target: Neu5Ac(a2-3)Gal(b1-3)GlcNAc6S
# Procedure, shortened: as §1
# [3] = biological target: Neu5Ac(a2-3)Gal(b1-3)[Fuc(a1-4)]GlcNAc
# Procedure, shortened: as §1
# [4] = biological target: Neu5Ac(a2-3)Gal(b1-3)[Fuc(a1-4)]GlcNAc(b1-3)Gal(b1-3)[Fuc(a1-4)]GlcNAc
# Procedure, shortened: as §1
# [5] = biological target: Neu5Ac(a2-3)Gal(b1-3)[Fuc(a1-4)]GlcNAc(b1-3)Gal(b1-4)[Fuc(a1-3)]GlcNAc
# Procedure, shortened: as §1
# [6] = biological target: Neu5Ac(a2-3)Gal(b1-3)[GlcNAc(b1-6)]GalNAc
# Procedure, shortened: as §1
# [7] = biological target: Neu5Ac(a2-3)Gal(b1-3)[Neu5Ac(a2-3)Gal(b1-4)]GlcNAc
# Procedure, shortened: as §1
# [8] = biological target: Neu5Ac(a2-3)Gal(b1-3)[Neu5Ac(a2-6)]GalNAc
# Procedure, shortened: as §1
# [9] = biological target: Neu5Ac(a2-3)Gal(b1-3)[Neu5Ac(a2-6)]GlcNAc(b1-3)[Fuc(a1-3)[Gal(b1-4)]GlcNAc(b1-6)]Gal(b1-4)Glc
# Procedure, shortened: as §1
# [10] = biological target: Neu5Ac(a2-3)Gal(b1-3)]Neu5Ac(a2-3)Gal(b1-4)]GlcNAc
# Procedure, shortened: as §1
# Neu5Ac(a2-3)Gal(b1-4)Glc = biological target: Neu5Ac(a2-3)Gal(b1-4)Glc
# Procedure, shortened: as §1
# [11] = biological target: Neu5Ac(a2-3)Gal(b1-4)GlcNAc
# Procedure, shortened: as §1
# [12] = biological target: Neu5Ac(a2-3)Gal(b1-4)GlcNAc(b1-2)Man
# Procedure, shortened: as §1
# [13] = biological target: Neu5Ac(a2-3)Gal(b1-4)GlcNAc(b1-2)Man(a1-3)[GlcNAc(b1-4)][Neu5Ac(a2-3)Gal(b1-4)GlcNAc(b1-2)Man(a1-6)]Man(b1-4)GlcNAc(b1-4)GlcNAc
# Procedure, shortened: as §1
# [14] = biological target: Neu5Ac(a2-3)Gal(b1-4)GlcNAc(b1-2)Man(a1-3)[Neu5Ac(a2-3)Gal(b1-4)GlcNAc(b1-2)Man(a1-6)]Man(b1-4)GlcNAc(b1-4)GlcNAc
# Procedure, shortened: as §1
# [15] = biological target: Neu5Ac(a2-3)Gal(b1-4)GlcNAc(b1-2)Man(a1-3)[Neu5Ac(a2-3)Gal(b1-4)GlcNAc(b1-2)Man(a1-6)]Man(b1-4)GlcNAc(b1-4)[Fuc(a1-6)]GlcNAc
# Procedure, shortened: as §1
# [16] = biological target: Neu5Ac(a2-3)Gal(b1-4)GlcNAc(b1-2)Man(a1-3)[Neu5Ac(a2-6)Gal(b1-4)GlcNAc(b1-2)Man(a1-6)]Man(b1-4)GlcNAc(b1-4)GlcNAc
# Procedure, shortened: as §1
# [17] = biological target: Neu5Ac(a2-3)Gal(b1-4)GlcNAc(b1-2)[Neu5Ac(a2-3)Gal(b1-4)GlcNAc(b1-4)]Man(a1-3)[GlcNAc(b1-4)][Neu5Ac(a2-3)Gal(b1-4)GlcNAc(b1-2)[Neu5Ac(a2-3)Gal(b1-4)GlcNAc(b1-6)]Man(a1-6)]Man(b1-4)GlcNAc(b1-4)GlcNAc
# Procedure, shortened: as §1
# [18] = biological target: Neu5Ac(a2-3)Gal(b1-4)GlcNAc(b1-2)[Neu5Ac(a2-3)Gal(b1-4)GlcNAc(b1-4)]Man(a1-3)[GlcNAc(b1-4)][Neu5Ac(a2-3)Gal(b1-4)GlcNAc(b1-4)Man(a1-6)]Man(b1-4)GlcNAc(b1-4)GlcNAc
# Procedure, shortened: as §1
# [19] = biological target: Neu5Ac(a2-3)Gal(b1-4)GlcNAc(b1-2)[Neu5Ac(a2-3)Gal(b1-4)GlcNAc(b1-6)]Man(a1-6)[Neu5Ac(a2-3)Gal(b1-4)GlcNAc(b1-2)Man(a1-3)][GlcNAc(b1-4)]Man(b1-4)GlcNAc(b1-4)GlcNAc
# Procedure, shortened: as §1
# [20] = biological target: Neu5Ac(a2-3)Gal(b1-4)GlcNAc(b1-3)Gal
# Procedure, shortened: as §1
# [21] = biological target: Neu5Ac(a2-3)Gal(b1-4)GlcNAc(b1-3)Gal(b1-3)GlcNAc
# Procedure, shortened: as §1
binder,measurement,setting,value
B1,glycan array binding signal (z-score),[1],0.222
same,glycan array binding signal (z-score),[2],0.091
same,glycan array binding signal (z-score),[3],-0.399
same,glycan array binding signal (z-score),[4],-0.455
same,glycan array binding signal (z-score),[5],0.203
same,glycan array binding signal (z-score),[6],-0.596
same,glycan array binding signal (z-score),[7],-0.266
same,glycan array binding signal (z-score),[8],-0.355
same,glycan array binding signal (z-score),[9],-0.389
same,glycan array binding signal (z-score),[10],-0.194
same,glycan array binding signal (z-score),Neu5Ac(a2-3)Gal(b1-4)Glc,-0.292
same,glycan array binding signal (z-score),[11],-0.463
same,glycan array binding signal (z-score),[12],0.727
same,glycan array binding signal (z-score),[13],-0.392
same,glycan array binding signal (z-score),[14],-0.217
same,glycan array binding signal (z-score),[15],-0.384
same,glycan array binding signal (z-score),[16],0.879
same,glycan array binding signal (z-score),[17],-0.494
same,glycan array binding signal (z-score),[18],-0.546
same,glycan array binding signal (z-score),[19],-0.384
same,glycan array binding signal (z-score),[20],-0.552
same,glycan array binding signal (z-score),[21],-0.434
